{"source": "paper PMC12136788", "binders": {"B1": {"name": "chr18:52893488:52893489:-_ENSG00000196628_ENST00000354452|hu_hu|FALSE|FALSE (ssRNA)", "RNA": "GGGAGUUCUACAGUCCGACGAUCCAUUUAGACCAUUUCAAUGGAUUUAUGGCAUUUACUCAGUGCUGAUAGGUGGAAAAACUACUUGAACAGGGAUUUUUUUUUUUCUUAAUACAUGCCAAGAAUUGUGUGGCUGUAAAAAUACAACAGAGGAUUGAGCAUCA"}, "B2": {"name": "85775473_85775593_3881_3pUTR_ENSG00000115486_ENST00000233838|human|control|control (ssRNA)", "RNA": "GGGAGUUCUACAGUCCGACGAUCGGAAGUCUGAGUUGGGGAUGAAUGUAAGUUCUGUUUAGGAUGAACUGAGCUUGAUAGCCCUGUGGGAUAUCCAGGUGGAACUUAGACCUAUACGUCUAGGGCACAGGAAAGAAACCUAGCCAACAGAGGAUUGAGCAUCA"}, "B3": {"name": "44924268_44924388_632_3pUTR_ENSG00000146676_ENST00000395699|human|control|control (ssRNA)", "RNA": "GGGAGUUCUACAGUCCGACGAUCCGGUGAUGGAGGUGCCCUCCGGGAGCUCUCCAUACAGGCCGCCCCCUGGGCCCCCGGCGCCGCCUCCCGGGCCGCCUGCCAGCUCGUCGUCCUCGCCUCCGUAGUCGUCUAUGAGCUUCGCAACAGAGGAUUGAGCAUCA"}, "B4": {"name": "chr13:22070289:22070290:-_ENSG00000165487_ENST00000382374|hu_hu|FALSE|FALSE (ssRNA)", "RNA": "GGGAGUUCUACAGUCCGACGAUCAGCAAAGUCUUCCAAGUGGGUUGUAAAAUGGCAAAAUGACUUGAAUUCAUCCAAACUAAUGCUCUCUCCUGCUGACAACUUCUCUCUCACAUUUUUCCAAUAAAUAUCUUUAUUUUCAGUCAACAGAGGAUUGAGCAUCA"}, "B5": {"name": "25151176_25158280_1304_CDS_ENSMUSG00000033569_ENSMUST00000126626|mouse|control|control (ssRNA)", "RNA": "GGGAGUUCUACAGUCCGACGAUCAUCAUCAUUUAGAGAAAUCCUGGAGAGUGUUCCUGUUAUGGUUGCUGCGCGGCAGGGGCCGAUAUCCUUAUGAAGCACUGAUCGGCAAGCAAUGUCUACGUCCUUUUCAAAGUCUGUCAUCAACAGAGGAUUGAGCAUCA"}, "B6": {"name": "chr1:161326577:161326578:+_ENSG00000143252_ENST00000367975|hu_hu|FALSE|FALSE (ssRNA)", "RNA": "GGGAGUUCUACAGUCCGACGAUCCAUCAAGUGUCGGAUCCCAUUCCAGGUAUGAUACAUGAGAGGGAAGACAAGUGCAAACUUAGCUGUGUGGAUCAGUGCUGGCCCCAGACACAGGGACUUCACAAGUUCCAAAUAAGACUCCAACAGAGGAUUGAGCAUCA"}, "B7": {"name": "chr8:29961843:29961844:+_ENSG00000104660_ENST00000321250|hu_hu|motif|central (ssRNA)", "RNA": "GGGAGUUCUACAGUCCGACGAUCGGCAAGUUCCUUACAAGCGUUACUCAUAGCAUCUGUAUCAUCCACUAAUCUUCUUGCGGUGCAGUAUGGAAUAGGUGAAAGGAUGUAAAAAAAUAGAACAAAGAGGGGCCAGUAUUUGUUCAACAGAGGAUUGAGCAUCA"}, "B8": {"name": "chr1:60041781:60041782:+_ENSMUSG00000041040_ENSMUST00000036540|mus_hu|mus_mus_mus_hu_False|8_48 (ssRNA)", "RNA": "GGGAGUUCUACAGUCCGACGAUCAAGUUUACAAUAGUAAAGUAAAUGCAGUAGUGGCAAAUUUUCUUUUAUUUUCCUUCACAAAAGAAAACCUCAGUAACCCAGUCCUAGUCUUGGACAUAGUGAAUCUCCAUGGGUCUGACUCAACAGAGGAUUGAGCAUCA"}, "B9": {"name": "chr5:138118867:138118868:+_ENSG00000044115_ENST00000302763|hu_mus|FALSE|FALSE (ssRNA)", "RNA": "GGGAGUUCUACAGUCCGACGAUCAGCCAAAACAUGGGCCUUCUUAGAACGGCCUCUCUUUUUAUUAGACGGCCCUUUACUAUUGGUGUUUACCAGGGUUGUAACCUGUGUAACAAGAGGCUCCAACAGUCUUUCAACAGCCAGCAACAGAGGAUUGAGCAUCA"}, "B10": {"name": "chr16:94664741:94664742:+_ENSMUSG00000040785_ENSMUST00000117648|mus_hu|mus_mus_mus_hu_False|18_68 (ssRNA)", "RNA": "GGGAGUUCUACAGUCCGACGAUCUGGUACUGAUCUUGGUAGCUGAUAUUCAGGAGAAAGGCUGGCCAAAGGUGUGUAUAUGCUGGUGUACUGGGGCAAACCUGGUAACACGUUUAUGUACGCUGGUGGUGUCUGGGUGAUAUCCAACAGAGGAUUGAGCAUCA"}, "B11": {"name": "chr6:18258251:18258252:-_ENSG00000124795_ENST00000397239|hu_hu|motif|central (ssRNA)", "RNA": "GGGAGUUCUACAGUCCGACGAUCCUUCUUUAAUGAGGACACAGUGCCUGGCCUGUUGUAAAGCAGUUUGUGUAGAUUUCGGAGUUCAUCGGUUUUCUUCUUACUUAGAAAAAAAUGUAUCCUCUCAAUUUCACAAAGUUUCUGCAACAGAGGAUUGAGCAUCA"}, "B12": {"name": "chr3:148802587:148802588:-_ENSG00000071794_ENST00000310053|hu_mus|hu_hu_hu_mus_False|68_78 (ssRNA)", "RNA": "GGGAGUUCUACAGUCCGACGAUCUCCAACAACUUGUCCUCUCAUAGUUCCAAAUAAAACGGAAUCUACUUCUUCAUCACUCGUUAGGAAGUCAUCUGGAGGAAUAAUGUCUUGGAAUUCAAAAUGUGGCAAGAAAGUUGAGUACAACAGAGGAUUGAGCAUCA"}, "B13": {"name": "chr17:66468409:66468410:+_ENSMUSG00000024101_ENSMUST00000116556|mus_mus|motif|central (ssRNA)", "RNA": "GGGAGUUCUACAGUCCGACGAUCUGGGAUGGAGUCUGACAUUCGAGAGAAGGCUCCUCCAGGUCCCUCACUGGUUCCAGUGCGGGGUCCCUUUCCAGAGAUACCUUUGCGCCUCAUGACAAGUUUGUUGAAGAGAUCUGACAUCAACAGAGGAUUGAGCAUCA"}, "B14": {"name": "115427805_115427925_7963_3pUTR_ENSG00000165185_ENST00000337530|human|control|control (ssRNA)", "RNA": "GGGAGUUCUACAGUCCGACGAUCACAUGGAGGGGUGACACAGUAUGGCUUGAGAGAUGAAAUAUUUGCCAAACAAACCAAAACUGUGUUUAACUUUCUUAAAGUUAAUGGACUUCCAUGGCCUCCAGGAGGCAGUUUUGUCUCCAACAGAGGAUUGAGCAUCA"}}, "note": "The list shows a part of the results.", "data": [{"molecular_target": "T1, UNK ZnF1-3 (human, UniProt Q9C0B0 31-174)", "T1 sequence": "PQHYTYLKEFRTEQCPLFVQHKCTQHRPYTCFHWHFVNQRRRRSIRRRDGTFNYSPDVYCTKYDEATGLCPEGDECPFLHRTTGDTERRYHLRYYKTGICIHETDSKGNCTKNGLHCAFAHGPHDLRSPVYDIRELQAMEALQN", "test": "nsRBNS (natural sequence RNA bind-n-seq); RBNS binding buffer (assumed for nsRBNS): 25 mM Tris pH 7.5, 150 mM KCl, 3 mM MgCl2, 0.01% Triton X-100, 500 ug/ml BSA, 20 U/ml SUPERase-In, 4 C; UNK is unkempt and MSI1 is Musashi-1; names of the RNAs are library labels; protein concentration not given here; high values mean tight binding", "units": {"binding signal": "enrichment R"}, "values": [{"binder": "B1", "binding signal": 0.879}, {"binder": "B2", "binding signal": 0.944}, {"binder": "B3", "binding signal": 0.68}, {"binder": "B4", "binding signal": 2.49}, {"binder": "B5", "binding signal": 1.26}, {"binder": "B6", "binding signal": 1.21}, {"binder": "B7", "binding signal": 1.52}, {"binder": "B8", "binding signal": 0.609}, {"binder": "B9", "binding signal": 1.03}, {"binder": "B10", "binding signal": 0.911}, {"binder": "B11", "binding signal": 0.92}, {"binder": "B12", "binding signal": 1.41}, {"binder": "B13", "binding signal": 0.466}, {"binder": "B14", "binding signal": 0.603}]}]}
